Test results from article PMC3323469 (2012).

Biological target: T1, Bombesin (Bombina bombina, UniProt P84214)
T1 chain: QQRLGNQWAVGHLM
Test: competition binding with [125I-Tyr4]bombesin on PC3 cells

Ki: 0.59 nM
B1: Gastrin-releasing peptide receptor (protein)
chain: MALNDCFLLNLEVDHFMHCNISSHSADLPVNDDWSHPGILYVIPAVYGVIILIGLIGNITLIKIFCTVKSMRNVPNLFISSLALGDLLLLITCAPVDASRYLADRWLFGRIGCKLIPFIQLTSVGVSVFTLTALSADRYKAIVRPMDIQASHALMKICLKAAFIWIISMLLAIPEAVFSDLHPFHEESTNQTFISCAPYPHSNELHPKIHSMASFLVFYVIPLSIISVYYYFIAKNLIQSAYNLPVEGNIHVKKQIESRKRLAKTVLVFVGLFAFCWLPNHVIYLYRSYHYSEVDTSMLHFVTSICARLLAFTNSCVNPFALYLLSKSFRKQFNTQLLCCQPGLIIRSHSTGRSTTCMTSLKSTNPSVATFSLINGNICHERYV
